Measured values as given in patent US20180230235A1 (Affibody, published 2018).

B1: Z06936 ABD fusion protein (designed binder, not shown: large carriers; small tags and cut ends)
chain: VDAKYAKENLFAGWEIDDLPNLTEDQRNAFIYKLWDDPSQSSELLSEAKKLNDSQAPK
notes: periplasmic sample
B2: Z06919 ABD fusion protein (designed binder, not shown: large carriers; small tags and cut ends)
chain: VDAKYAKEHLFAGWEIEDLPNLTEYQRNAFIYKLWDDPSQSSELLSEAKKLNDSQAPK
notes: periplasmic sample
B3: Z06920 ABD fusion protein (designed binder, not shown: large carriers; small tags and cut ends)
chain: VDAKYAKEHLFAGWEITDLPNLTDQQRDAFIYKLWDDPSQSSELLSEAKKLNDSQAPK
notes: periplasmic sample
B4: Z06923 ABD fusion protein (designed binder, not shown: large carriers; small tags and cut ends)
chain: VDAKYAKEQLFAGWEISDLPNLTEQQRHAFIYKLWDDPSQSSELLSEAKKLNDSQAPK
notes: periplasmic sample
B5: Z06924 ABD fusion protein (designed binder, not shown: large carriers; small tags and cut ends)
chain: VDAKYAKEHIFAGWEITDLPNLTDDQRNAFIYKLWDDPSQSSELLSEAKKLNDSQAPK
notes: periplasmic sample
B6: Z06925 ABD fusion protein (designed binder, not shown: large carriers; small tags and cut ends)
chain: VDAKYAKENLFAGWEIDDLPNLTWQQRHAFIYKLWDDPSQSSELLSEAKKLNDSQAPK
notes: periplasmic sample
B7: Z06931 ABD fusion protein (designed binder, not shown: large carriers; small tags and cut ends)
chain: VDAKYAKEHLFAGWEITDLPNLTIDQRNAFIYKLWDDPSQSSELLSEAKKLNDSQAPK
notes: periplasmic sample
B8: Z06932 ABD fusion protein (designed binder, not shown: large carriers; small tags and cut ends)
chain: VDAKYAKENIFAGWEISDLPNLTVAQRHAFIYKLWDDPSQSSELLSEAKKLNDSQAPK
notes: periplasmic sample
B9: Z06933 ABD fusion protein (designed binder, not shown: large carriers; small tags and cut ends)
chain: VDAKYAKEDLFAGWEIDDLPNLTEYQRNAFIYKLWDDPSQSSELLSEAKKLNDSQAPK
notes: periplasmic sample
B10: Z06934 ABD fusion protein (designed binder, not shown: large carriers; small tags and cut ends)
chain: VDAKYAKENIFAGWEIDDLPNLTESQRHAFIYKLWDDPSQSSELLSEAKKLNDSQAPK
notes: periplasmic sample
B11: Z06942 ABD fusion protein (designed binder, not shown: large carriers; small tags and cut ends)
chain: VDAKYAKENLFAGWEISDLPNLTDYQRNAFIYKLWDDPSQSSELLSEAKKLNDSQAPK
notes: periplasmic sample
B12: Z06954 ABD fusion protein (designed binder, not shown: large carriers; small tags and cut ends)
chain: VDAKYAKENIFAGWEIEDLPNLTDGQRNAFIYKLWDDPSQSSELLSEAKKLNDSQAPK
notes: periplasmic sample
B13: Z06959 ABD fusion protein (designed binder, not shown: large carriers; small tags and cut ends)
chain: VDAKYAKENLFAGWEITDLPNLTIEQRNAFIYKLWDDPSQSSELLSEAKKLNDSQAPK
notes: periplasmic sample
B14: Z06960 ABD fusion protein (designed binder, not shown: large carriers; small tags and cut ends)
chain: VDAKYAKENIFAGWEISDLPNLTEHQRNAFIYKLWDDPSQSSELLSEAKKLNDSQAPK
notes: periplasmic sample
B15: Z06961 ABD fusion protein (designed binder, not shown: large carriers; small tags and cut ends)
chain: VDAKYAKENLFAGWEIGDLPNLTEQQRHAFIYKLWDDPSQSSELLSEAKKLNDSQAPK
notes: periplasmic sample
B16: Z06962 ABD fusion protein (designed binder, not shown: large carriers; small tags and cut ends)
chain: VDAKYAKENLFAGWEITDLPNLTIQQRNAFIYKLWDDPSQSSELLSEAKKLNDSQAPK
notes: periplasmic sample
B17: Z06967 ABD fusion protein (designed binder, not shown: large carriers; small tags and cut ends)
chain: VDAKYAKENLFAGWEIADLPNLTDHQRNAFIYKLWDDPSQSSELLSEAKKLNDSQAPK
notes: periplasmic sample
B18: Z06971 ABD fusion protein (designed binder, not shown: large carriers; small tags and cut ends)
chain: VDAKYAKENLFAGWEISDLPNLTQQQRHAFIYKLWDDPSQSSELLSEAKKLNDSQAPK
notes: periplasmic sample
B19: Z06976 ABD fusion protein (designed binder, not shown: large carriers; small tags and cut ends)
chain: VDAKYAKENIFAGWEIDDLPNLTDEQRNAFIYKLWDDPSQSSELLSEAKKLNDSQAPK
notes: periplasmic sample
B20: Z06977 ABD fusion protein (designed binder, not shown: large carriers; small tags and cut ends)
chain: VDAKYAKENIFAGWEIEDLPNLTDHQRDAFIYKLWDDPSQSSELLSEAKKLNDSQAPK
notes: periplasmic sample
B21: Z06984 ABD fusion protein (designed binder, not shown: large carriers; small tags and cut ends)
chain: VDAKYAKENIFAGWEIDDLPNLTTYQRNAFIYKLWDDPSQSSELLSEAKKLNDSQAPK
notes: periplasmic sample
B22: Z06985 ABD fusion protein (designed binder, not shown: large carriers; small tags and cut ends)
chain: VDAKYAKENIFAGWEIEDLPNLTDHQRNAFIYKLWDDPSQSSELLSEAKKLNDSQAPK
notes: periplasmic sample
B23: Z06986 ABD fusion protein (designed binder, not shown: large carriers; small tags and cut ends)
chain: VDAKYAKENLFAGWEINDLPNLTEYQRNAFIYKLWDDPSQSSELLSEAKKLNDSQAPK
notes: periplasmic sample
B24: Z06993 ABD fusion protein (designed binder, not shown: large carriers; small tags and cut ends)
chain: VDAKYAKENIFAGWEIRDLPNLTDYQRNAFIYKLWDDPSQSSELLSEAKKLNDSQAPK
notes: periplasmic sample
B25: Z06994 ABD fusion protein (designed binder, not shown: large carriers; small tags and cut ends)
chain: VDAKYAKEHLFAGWEIDELPNLTEQQRHAFIYKLWDDPSQSSELLSEAKKLNDSQAPK
notes: periplasmic sample
B26: Z06996 ABD fusion protein (designed binder, not shown: large carriers; small tags and cut ends)
chain: VDAKYAKEHLFAGWEIEDLPNLTIDQRNAFIYKLWDDPSQSSELLSEAKKLNDSQAPK
notes: periplasmic sample
B27: Z06999 ABD fusion protein (designed binder, not shown: large carriers; small tags and cut ends)
chain: VDAKYAKEHLFAGWEITDLPNLTEQQRNAFIYKLWDDPSQSSELLSEAKKLNDSQAPK
notes: periplasmic sample
B28: Z07000 ABD fusion protein (designed binder, not shown: large carriers; small tags and cut ends)
chain: VDAKYAKENWAAGWEISDLPNLTDFQRNAFIYKLWDDPSQSSELLSEAKKLNDSQAPK
notes: periplasmic sample
B29: Z07010 ABD fusion protein (designed binder, not shown: large carriers; small tags and cut ends)
chain: VDAKYAKENIFAGWEIGDLPNLTEDQRNAFIYKLWDDPSQSSELLSEAKKLNDSQAPK
notes: periplasmic sample
B30: Z07012 ABD fusion protein (designed binder, not shown: large carriers; small tags and cut ends)
chain: VDAKYAKENIFAGWEIDDLPNLTEAQRHAFIYKLWDDPSQSSELLSEAKKLNDSQAPK
notes: periplasmic sample
B31: Z07013 ABD fusion protein (designed binder, not shown: large carriers; small tags and cut ends)
chain: VDAKYAKEQLFAGWEIDDLPNLTEFQRNAFIYKLWDDPSQSSELLSEAKKLNDSQAPK
notes: periplasmic sample
B32: Z07022 ABD fusion protein (designed binder, not shown: large carriers; small tags and cut ends)
chain: VDAKYAKEHIFAGWEIEDLPNLTESQRNAFIYKLWDDPSQSSELLSEAKKLNDSQAPK
notes: periplasmic sample
B33: Z07024 ABD fusion protein (designed binder, not shown: large carriers; small tags and cut ends)
chain: VDAKYAKENIFAGWEIDDLPNLTAHQRDAFIYKLWDDPSQSSELLSEAKKLNDSQAPK
notes: periplasmic sample
B34: Z07052 ABD fusion protein (designed binder, not shown: large carriers; small tags and cut ends)
chain: VDAKYAKENIFAGWEIEDLPNLTDNQRDAFIYKLWDDPSQSSELLSEAKKLNDSQAPK
notes: periplasmic sample
B35: Z07066 ABD fusion protein (designed binder, not shown: large carriers; small tags and cut ends)
chain: VDAKYAKENWAAGWEIDDLPNLTIDQRNAFIYKLWDDPSQSSELLSEAKKLNDSQAPK
notes: periplasmic sample
B36: Z07072 ABD fusion protein (designed binder, not shown: large carriers; small tags and cut ends)
chain: VDAKYAKEQLFAGWEIDDLPNLTDFQRNAFIYKLWDDPSQSSELLSEAKKLNDSQAPK
notes: periplasmic sample
B37: Z07074 ABD fusion protein (designed binder, not shown: large carriers; small tags and cut ends)
chain: VDAKYAKENIFAGWEIEELPNLTEFQRNAFIYKLWDDPSQSSELLSEAKKLNDSQAPK
notes: periplasmic sample
B38: Z07077 ABD fusion protein (designed binder, not shown: large carriers; small tags and cut ends)
chain: VDAKYAKENLFAGWEIGDLPNLTEDQRNAFIYKLWDDPSQSSELLSEAKKLNDSQAPK
notes: periplasmic sample
B39: Z07081 ABD fusion protein (designed binder, not shown: large carriers; small tags and cut ends)
chain: VDAKYAKENIFAGWEIEDLPNLTDQQRNAFIYKLWDDPSQSSELLSEAKKLNDSQAPK
notes: periplasmic sample
B40: Z07082 ABD fusion protein (designed binder, not shown: large carriers; small tags and cut ends)
chain: VDAKYAKEHIFAGWEISDLPNLTEQQRHAFIYKLWDDPSQSSELLSEAKKLNDSQAPK
notes: periplasmic sample
B41: Z07087 ABD fusion protein (designed binder, not shown: large carriers; small tags and cut ends)
chain: VDAKYAKEHLFAGWEIGDLPNLTEQQRHAFIYKLWDDPSQSSELLSEAKKLNDSQAPK
notes: periplasmic sample
B42: Z07089 ABD fusion protein (designed binder, not shown: large carriers; small tags and cut ends)
chain: VDAKYAKENIFAGWEITDLPNLTVQQRHAFIYKLWDDPSQSSELLSEAKKLNDSQAPK
notes: periplasmic sample
B43: Z07090 ABD fusion protein (designed binder, not shown: large carriers; small tags and cut ends)
chain: VDAKYAKENLFAGWEIDDLPNLTVQQRNAFIYKLWDDPSQSSELLSEAKKLNDSQAPK
notes: periplasmic sample

Key:
[1] = molecular target: T1, Human CAIX (carbonic anhydrase IX) (human, UniProt Q16790 59-414); experiment: ELISA titration of biotinylated human CAIX on captured Z-ABD fusion
[2] = molecular target: T1, Human CAIX (carbonic anhydrase IX); experiment: ELISA screening, captured Z-ABD fusion, biotinylated human CAIX 0.25 ug/ml

Row | Binder | Kd [1] [nM] | absorbance at 450 nm [2] [AU]
1 | B1 | 1.8 | > 1
2 | B2 | 2.9 | > 1
3 | B3 | 8 | > 1
4 | B4 | 8.6 | > 1
5 | B5 | 6.7 | > 1
6 | B6 | 9.9 | > 1
7 | B7 | 6.1 | > 1
8 | B8 | 7.9 | > 1
9 | B9 | 4.3 | > 1
10 | B10 | 5.8 | > 1
11 | B11 | 1.9 | > 1
12 | B12 | 3.4 | > 1
13 | B13 | 2.7 | > 1
14 | B14 | 3.9 | > 1
15 | B15 | 2.7 | > 1
16 | B16 | 2.9 | > 1
17 | B17 | 9 | > 1
18 | B18 | 5.9 | > 1
19 | B19 | 2.5 | > 1
20 | B20 | 4.1 | > 1
21 | B21 | 2.9 | > 1
22 | B22 | 3.7 | > 1

Row | Binder | Kd [1] [nM] | absorbance at 450 nm [2] [AU]
23 | B23 | 2.1 | > 1
24 | B24 | 6.5 | > 1
25 | B25 | 15 | > 1
26 | B26 | 10 | > 1
27 | B27 | 2.7 | > 1
28 | B28 | 5.8 | > 1
29 | B29 | 3.5 | > 1
30 | B30 | 4 | > 1
31 | B31 | 4.4 | > 1
32 | B32 | 11 | > 1
33 | B33 | 11 | > 1
34 | B34 | 9.2 | > 1
35 | B35 | 8.3 | > 1
36 | B36 | 8.4 | > 1
37 | B37 | 6.8 | > 1
38 | B38 | 3.6 | > 1
39 | B39 | 4.3 | > 1
40 | B40 | 5.2 | > 1
41 | B41 | 12 | > 1
42 | B42 | 2.7 | > 1
43 | B43 | 4 | > 1
